No constants are given. Whether binding was seen depends on the method and setting. For part of these data: In cells and extracts the contact can be indirect. Some results given as binding are weak or reduced against the parent protein; the word gives no strength. Tags and fused reporters may be left off the sequences shown. Blank lines part the entries; values can stand above or below the binder they belong to.
How the values were obtained:
[1] = target: T1, CLUC-CPL1^1–714 (Arabidopsis thaliana) (UniProt Q5YDB6); experiment: split reporter; luciferase complementation imaging (LuCI); NLUC and CLUC fusions co-expressed with P19 in Nicotiana benthamiana leaves by Agrobacterium infiltration; luminescence 3 d after infiltration
T1 sequence: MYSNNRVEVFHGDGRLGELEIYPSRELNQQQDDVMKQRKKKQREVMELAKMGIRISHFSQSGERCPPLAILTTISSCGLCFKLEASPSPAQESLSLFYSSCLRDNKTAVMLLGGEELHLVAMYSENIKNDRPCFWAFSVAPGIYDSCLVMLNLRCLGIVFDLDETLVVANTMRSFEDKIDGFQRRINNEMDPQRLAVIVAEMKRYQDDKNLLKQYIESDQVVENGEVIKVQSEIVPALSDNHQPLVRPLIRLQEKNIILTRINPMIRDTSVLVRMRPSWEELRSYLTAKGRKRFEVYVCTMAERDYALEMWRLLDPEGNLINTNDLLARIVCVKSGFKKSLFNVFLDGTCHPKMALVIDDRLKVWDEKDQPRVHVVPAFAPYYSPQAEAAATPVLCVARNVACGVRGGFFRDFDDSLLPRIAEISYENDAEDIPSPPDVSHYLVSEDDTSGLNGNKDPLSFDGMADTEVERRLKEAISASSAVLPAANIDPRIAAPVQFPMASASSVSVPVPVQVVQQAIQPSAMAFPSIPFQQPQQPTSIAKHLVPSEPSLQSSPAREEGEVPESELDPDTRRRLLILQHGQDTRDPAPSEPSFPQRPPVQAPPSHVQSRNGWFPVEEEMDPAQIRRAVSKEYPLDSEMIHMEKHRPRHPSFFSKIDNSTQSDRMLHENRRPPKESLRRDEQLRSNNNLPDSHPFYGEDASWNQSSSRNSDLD

[2] = target: T2, CLUC-CPL1^699–967 (Arabidopsis thaliana) (UniProt Q5YDB6); experiment: as above
T2 sequence: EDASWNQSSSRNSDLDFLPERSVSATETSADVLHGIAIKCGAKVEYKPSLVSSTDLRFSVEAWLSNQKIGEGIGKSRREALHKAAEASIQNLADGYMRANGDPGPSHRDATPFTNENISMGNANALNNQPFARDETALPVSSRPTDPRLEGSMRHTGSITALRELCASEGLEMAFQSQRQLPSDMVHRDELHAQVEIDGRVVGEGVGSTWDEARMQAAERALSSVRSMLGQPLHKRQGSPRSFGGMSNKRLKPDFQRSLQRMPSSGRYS

[3] = target: T3, CLUC-CPL1 (Arabidopsis thaliana) (UniProt Q5YDB6); experiment: as above
T3 sequence: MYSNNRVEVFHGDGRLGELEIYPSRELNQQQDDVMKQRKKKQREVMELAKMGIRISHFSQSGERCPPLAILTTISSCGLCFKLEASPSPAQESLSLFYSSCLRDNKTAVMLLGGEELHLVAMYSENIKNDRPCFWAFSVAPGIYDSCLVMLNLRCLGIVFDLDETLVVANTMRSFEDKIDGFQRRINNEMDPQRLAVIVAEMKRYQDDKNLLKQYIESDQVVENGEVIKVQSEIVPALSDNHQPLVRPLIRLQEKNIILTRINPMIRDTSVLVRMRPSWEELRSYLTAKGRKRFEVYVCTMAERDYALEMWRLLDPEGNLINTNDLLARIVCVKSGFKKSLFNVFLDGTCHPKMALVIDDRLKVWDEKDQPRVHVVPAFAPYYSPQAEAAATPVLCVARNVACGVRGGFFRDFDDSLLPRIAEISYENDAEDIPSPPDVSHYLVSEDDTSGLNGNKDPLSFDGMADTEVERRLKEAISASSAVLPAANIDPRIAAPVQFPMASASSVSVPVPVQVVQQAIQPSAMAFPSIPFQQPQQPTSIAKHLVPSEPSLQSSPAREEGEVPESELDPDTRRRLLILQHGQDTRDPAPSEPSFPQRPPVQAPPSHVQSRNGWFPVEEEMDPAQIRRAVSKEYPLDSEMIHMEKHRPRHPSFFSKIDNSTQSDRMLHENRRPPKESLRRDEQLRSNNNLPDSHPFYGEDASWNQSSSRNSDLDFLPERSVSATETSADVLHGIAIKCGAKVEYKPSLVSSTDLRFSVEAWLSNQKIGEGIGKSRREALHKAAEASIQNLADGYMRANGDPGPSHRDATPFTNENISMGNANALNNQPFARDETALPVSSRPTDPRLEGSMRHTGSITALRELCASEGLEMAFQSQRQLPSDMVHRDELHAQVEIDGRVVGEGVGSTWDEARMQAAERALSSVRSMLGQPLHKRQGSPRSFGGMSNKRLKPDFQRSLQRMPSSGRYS

[4] = target: T4, GAL4 DNA-binding domain fused with CPL2 dsRBM (BD:C2^602–770) (Arabidopsis thaliana) (UniProt Q5YDB5); experiment: two-hybrid; yeast PJ69-4A; GAL4-BD (pBUTE^GW) and GAL4-AD (pGAD^GW) fusions, both orientations; growth on SD -ULHA with X-alpha-gal, 28°C, 48 h
T4 sequence: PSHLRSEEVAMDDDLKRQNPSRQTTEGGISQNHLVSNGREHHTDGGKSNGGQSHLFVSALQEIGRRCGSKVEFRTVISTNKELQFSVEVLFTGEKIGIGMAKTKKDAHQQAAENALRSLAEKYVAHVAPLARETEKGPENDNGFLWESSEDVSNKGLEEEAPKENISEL

[5] = target: T5, GAL4 DNA-binding domain fused with CPL1^699–967 (BD:C1D) (Arabidopsis thaliana) (UniProt Q5YDB6); experiment: as above
T5 sequence: T2 sequence

[6] = target: T6, GAL4 DNA-binding domain fused with full-length CPL1 (BD:CPL1) (Arabidopsis thaliana) (UniProt Q5YDB6); experiment: as above
T6 sequence: T3 sequence

[7] = target: T7, NLUC-RCF3 (Arabidopsis thaliana) (UniProt Q8W4B1); experiment: split reporter; luciferase complementation imaging (LuCI); NLUC and CLUC fusions co-expressed with P19 in Nicotiana benthamiana leaves by Agrobacterium infiltration; luminescence 3 d after infiltration
T7 sequence: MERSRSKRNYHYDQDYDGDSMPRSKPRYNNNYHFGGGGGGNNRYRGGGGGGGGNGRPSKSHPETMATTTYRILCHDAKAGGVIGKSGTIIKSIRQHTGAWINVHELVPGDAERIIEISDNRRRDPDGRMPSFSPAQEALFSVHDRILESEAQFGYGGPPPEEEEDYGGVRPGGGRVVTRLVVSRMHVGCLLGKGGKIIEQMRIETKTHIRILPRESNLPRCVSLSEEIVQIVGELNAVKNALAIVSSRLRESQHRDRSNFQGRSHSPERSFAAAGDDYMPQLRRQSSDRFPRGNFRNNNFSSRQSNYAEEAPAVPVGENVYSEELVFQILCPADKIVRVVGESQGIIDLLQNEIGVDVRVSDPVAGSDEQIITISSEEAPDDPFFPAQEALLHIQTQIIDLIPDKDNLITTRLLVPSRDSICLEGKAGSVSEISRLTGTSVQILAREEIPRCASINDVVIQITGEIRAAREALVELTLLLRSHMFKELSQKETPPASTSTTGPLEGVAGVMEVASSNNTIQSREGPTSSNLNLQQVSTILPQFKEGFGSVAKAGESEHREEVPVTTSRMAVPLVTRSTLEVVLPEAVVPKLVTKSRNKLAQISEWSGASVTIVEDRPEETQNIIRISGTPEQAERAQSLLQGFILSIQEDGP

[8] = target: T8, RCF3-nYFP (Arabidopsis thaliana) (UniProt Q8W4B1); experiment: split reporter; BiFC; nYFP and cYFP fusions co-expressed in Arabidopsis mesophyll protoplasts; YFP fluorescence one day after transformation
T8 sequence: T7 sequence

binding [1]: no binding
binding [2]: binds
binding [3]: binds
B1: NLUC-RCF3 (protein, UniProt Q8W4B1 1-652)
chain: T7 sequence

binding [4]: no binding
binding [5]: binds
binding [6]: binds
B2: GAL4 activation domain fused with RCF3 (AD:RCF3) (protein, UniProt Q8W4B1 1-652)
chain: T7 sequence

binding [3]: no binding
binding [7]: no binding
B3: LUC fragments fused to MYB75 (LuCI negative control) (protein, UniProt Q9FE25 1-248)
chain: MEGSSKGLRKGAWTTEEDSLLRQCINKYGEGKWHQVPVRAGLNRCRKSCRLRWLNYLKPSIKRGKLSSDEVDLLLRLHRLLGNRWSLIAGRLPGRTANDVKNYWNTHLSKKHEPCCKIKMKKRDITPIPTTPALKNNVYKPRPRSFTVNNDCNHLNAPPKVDVNPPCLGLNINNVCDNSIIYNKDKKKDQLVNNLIDGDNMWLEKFLEESQEVDILVPEATTTEKGDTLAFDVDQLWSLFDGETVKFD

binding [8]: no binding
B4: MYB75-cYFP (protein, UniProt Q9FE25 1-248)
chain: B3 chain

Reference: publication PMC3841200
